Target: wild type eIF6 (eIF6^WT), purified (UniProt O55135)
Assay: SPR

B1: G3BP1, purified (natural protein)
chain: not shown
Kd: ~9.72 µM

Source: PMC11602552 (The Journal of Experimental Medicine, 2024)
